From patent US20160017021A1 (PROTALIX, published 2016)

Biological target: T1, Tumor necrosis factor-alpha (TNFα) (human, UniProt P01375 in part)
T1 construct: The same entry stands for both sources; also called TNF-alpha; cachexin
Experiment: sandwich ELISA: TNFα captured on anti-TNFα plate, serial dilutions of BY2 lysate/supernatant, detection with goat anti human IgG Fc HRP

T1 sequence (P01375 77-233 limits assumed): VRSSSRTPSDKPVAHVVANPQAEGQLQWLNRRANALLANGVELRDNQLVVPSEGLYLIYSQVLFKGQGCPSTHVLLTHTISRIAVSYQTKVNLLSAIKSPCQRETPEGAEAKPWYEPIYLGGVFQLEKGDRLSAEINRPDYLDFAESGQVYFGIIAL

B1: plant recombinant human (prh) TNFR2:Fc (Fc fusion)
chain: LPAQVAFTPYAPEPGSTCRLREYYDQTAQMCCSKCSPGQHAKVFCTKTSDTVCDSCEDSTYTQLWNWVPECLSCGSRCSSDQVETQACTREQNRICTCRPGWYCALSKQEGCRLCAPLRKCRPGFGVARPGTETSDVVCKPCAPGTFSNTTSSTDICRPHQICNVVAIPGNASMDAVCTSTSPTRSMAPGAVHLPQPVSTRSQHTQPTPEPSTAPSTSFLLPMGPSPPAEGSTGD[letters of human IgG1 Fc and a few adjoining residues omitted]
notes: Expressed in N. tabacum BY2 cells; also called PRX-106; PRX106
- binding result: binds
